Consider 34 variants from the RNAGym collection of RNA variant scans (doi:10.1093/nar/gkz1192).

Sequences and labels used below:
B1: CPEB3 Ribozyme (parent)
chain: UAACAGGGGGCCACAGCAGAAGCGUUCACGUCGCAGCCCCUGUCAGAUUCUGGUGAAUCUGCGAAUUCUGCUGUAUAUCUC

The source gives no read counts; variants with many changes may rest on few reads.

In the data set the parent is B1. Nature of the data set: self-cleavage, relative activity (ratio to wild type); higher = more cleavage; in vitro, sequencing. Put shortly:
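CPEB3 self-cleaving ribozyme mutant libraries were made by rounds of error-prone PCR, barcoded, and transcribed in vitro with T7 RNA polymerase for 5 hours at 37°C. Cleavage occurred during transcription and a 15 min DNase I step before EDTA stop. RNAs were reverse transcribed with template switching and Illumina-sequenced, with DNA sequencing mapping barcodes to variants. Relative activity is the variant's cleaved/total read fraction divided by wild type's (minimum 5 reads), averaged across three batches.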
On to UAGCAGGGGGCCACAGCAGAAGCAUUCACGUCGCAGCCCCUGUCAGAUUCUGGUGAAGCUGCGAAUUCUGAUGUAUAUCUC [A3G G24A U58G C71A], for which the self-cleavage is 0.05.

Take UAGCAGGGUGCCACAGCAGAAGCGUUCACGUCGCGGCCCCCGUCGGAUUCUGGUGAAUCUGCGAAUUCUGCUGUAUAUCUC [A3G G9U A35G U41C A45G]: the self-cleavage was found to be 1.

Consider UAGCAGGGGACCACAGCAGAAGCGCUCACGUCGCAGCCCCCGUCAGAUACUGGUGAAUCUGCGAAUUCUGCUGUAUAUCUC [A3G G10A U25C U41C U49A], for which the self-cleavage was determined as 0.08.

With UAGCAGGGUGCCACAGCAGAAGCGUUCACGUCGCAGCCCCUGUCAGAUUCUGGUGAAUCUGCGAAUUCUGCUGCAUAUCUC [A3G G9U U74C], the self-cleavage is 0.

UAGCAGGGAGCCACAGCAGAAGCGUUCACGUCGCAGCCCCUGUCAGAUUCUGGUGAAUCUGCGAAUUCUGCAGUAUAUCUC [A3G G9A U72A]: the self-cleavage is 0.31.

With UAGCAGGGAGCCACAGCAGAGGCGUUCACGUCGCAGCCCCUGUCAGGUUCUGGUGAAUCUGCGAAUUCUGCCGUAUAUCUC [A3G G9A A21G A47G U72C], the self-cleavage came to 0.02.

In the case of UAGCAGGGGGCCACAGCAAUAGCGUUCACGUCGCAGCCCCUGUCUGAUUCUGGUGAAUCUGCGAAUUCUGCUGUAUAUCUC [A3G G19A A20U A45U], the self-cleavage was found to be 0.14.

As to UAGCAGGGGGCCACAGCAGAAGCGUUCACGUCGCAACCCCUGUCAGAUUCAGGUGGAUCUGCGAACUCUGCUGUAUAUCUC [A3G G36A U51A A56G U66C], the self-cleavage stood at 0.33.

Regarding UAGCAGGGGGCCACAGCAGAAGCGCUCACGUCGCAGCCCCUGUCGGAUUCUGGUGAAUCCGCGAAUUCUGCCUUAUAUCUC [A3G U25C A45G U60C U72C G73U], the self-cleavage worked out at 0.13.

In the case of UAGCAGGGGCCCACUGCAGAAGCGUUCACGUCGCAGCCCCUGUCAGACUCUGGUGAAUCUGCGUAUUCUGCUGUAUAUCUC [A3G G10C A15U U48C A64U], the self-cleavage was 0.13.

In the case of UAGCAGGGGGCCACAACAGAAGCGUUCACGUCGCAGCCCCUGUCAGAUUCAGGUGAAUCUGCGAACUCUGCUGUAUAUCUC [A3G G16A U51A U66C], the self-cleavage turned out to be 0.13.

Take UAGCAGGGAGCCACGGCAGAAGCGUUCACGUCGCAGCCCCUGUCAGAUUCUGGUGAAUCUGCGAAUACUGCUGUAUUUCUC [A3G G9A A15G U67A A77U]: the self-cleavage worked out at 0.12.

Take UAGCAGGUGGCCACAGCAGAAGCGUUCACGUCGCAGCCCCUGUCAGAUUCUGGUGAAUCUGCGAAUUCUGCCGUAUACCUC [A3G G8U U72C U78C]: the self-cleavage was found to be 0.11.

For UAGCAGUGGGCCACAGCAGAAGCGUUCACGUCGCAGCCCCUGUCGGAUUCUGGUGAAACUGCGAAUUCUGCUGUACAUCUC [A3G G7U A45G U58A U76C], the self-cleavage came out at 0.08.

Consider UAGCAGGGGGCCACAGCAGAAGCGUUCACUUCGCAGCCCCCGUCAGAUUCUGGUGAAUCCGCGAAUUCUGCUGUAUAUCUC [A3G G30U U41C U60C], for which the self-cleavage turned out to be 0.16.

Take UAGCAGGGGGCCACAGCAGAAGCGUUCACGUCGCAGCCCCUAUCAGAUUCUGGUGAAUCUGCGAAUCCUGCUGUAUAUCUC [A3G G42A U67C]: the self-cleavage came to 0.11.

Take UAGCAGUGGGCCACAGCAGAAGCGUUCACGUCGCAGCCCCUGUCAGAUUCAGGUGGAUCGGCGAAUUCUGCUGUAUAUCUC [A3G G7U U51A A56G U60G]: the self-cleavage was 0.15.

On to UAGCAGGGGGCCACAGCAGAAACGUUCACGUCGCAGCCCCUGUCAGAUUCUGGUGAAUCUGCGAAUUCUGCUGUAUGUCUC [A3G G22A A77G], for which the self-cleavage was determined as 0.36.

Turning to UAGCAGGGAGCCACAGCAGAGGCGUUCACGUCGCAGCCCCUGUCAGAUUCUGGUGAAUCUGCGAAUUCUGCUGCAUAUCUC [A3G G9A A21G U74C], the self-cleavage came to 0.86.

Turning to UAGCAGGGGACCGCAGCAGAAGCGUUCACGUCGCGGCCCCUGUCAGACUCUGGUGAAUCUGCGAAUUCUGCUGUAUAUAUC [A3G G10A A13G A35G U48C C79A], the self-cleavage was determined as 0.61.

Consider UAGCAGGGGGCCACAGCAUAAGCGUUCACGUCGCAGCCCCUGUCAGAUUCUGGCGAAUCUGCGAAUUCUGCUGUAUAUCUC [A3G G19U U54C], for which the self-cleavage was 0.36.

On to UAGCAGGGGGCCACACCAGAAGCGUUCACGUCGCAGCUCCCGUCAGAUUCUGGUGAAUCUGCGAAUUCUGCUGUAUAUCUC [A3G G16C C38U U41C], for which the self-cleavage came to 0.08.

Consider UAGCAGGGGGCCACAGCAGAAGCAUUCACGUCGCGGCCCCUGCCAGAUUCUGGUGAAUCUGCGAAUUCUGCUGUAUAUCUC [A3G G24A A35G U43C], for which the self-cleavage was determined as 0.09.

In the case of UAGCAGGGGGCCACAGCAGAAGCGUUCACGUCACGGCCCCUGUCAGAUUCUGGUGAAUCAGCGAAUUCUGCUGUAUAUCUC [A3G G33A A35G U60A], the self-cleavage came to 0.2.

UAGCAGUGGGCCACAGCAGAAGCGUUCACGUCGCAGCCCCUGUCAGAUUCUGGUGAAUCUGCGAAUUCUGCUGUAUGUCUC [A3G G7U A77G]: the self-cleavage amounted to 0.46.

Consider UAGCAGGGGGCCACAGCAGAACCGUUCACGUCGCAGCCCCUGUCAGACUCCGGUGAAUCUGCGAAUUCUGCUGUAAAUCUC [A3G G22C U48C U51C U76A], for which the self-cleavage was 0.08.

On to UAGCAGGGGGCCACAGCAGAAGCGUUCACGUCCCAGCCCCUGUCAGAUUCUGGUGAAUCUGCGAAUUCUGCUGUGUAUCUC [A3G G33C A75G], for which the self-cleavage is 0.23.

Regarding UAGCAGGGGGCCACACCAGAAGCGAUCACGUCACAGCCCCUGUCAGAUUCUGGUGAAUCUGCGGAUUCUGCUGUAUAUCUC [A3G G16C U25A G33A A64G], the self-cleavage amounted to 0.11.

Regarding UAGCAGGGGGCCACAGCAGAAUCGUUCACGUCGCAGCCCCUGUCAGAUUCUGGUGAGUCUGCGAAUUCUGCCGUAUAUCUC [A3G G22U A57G U72C], the self-cleavage worked out at 0.06.

Take UAGCAGGGUGCCACGGCAGAAGCGUUCACGUCGCAGCCCCGGCCAGAUUCUGGUGAAUCUGCGAAUUCUGCUGUAAAUCUC [A3G G9U A15G U41G U43C U76A]: the self-cleavage turned out to be 0.13.

For the variant UAGCAGGAGGCCACAGCAGAAGCGUUCACGUCGCAGCCCCUGCCAGAUUCUGGUGAAUCUGCAAAUUCGGCUGUAUAUCUC [A3G G8A U43C G63A U69G], the self-cleavage amounted to 0.18.

Consider UAGCAGGGGGCCACAGCAGAAGCGAUCACGUCGCAGCACCCGUCAGAUUCUCGUGAAUCUGCGAAUUCUGCUGUAUAUCUC [A3G U25A C38A U41C G52C], for which the self-cleavage came out at 0.16.

With UAGCAGGGGGCCACAGCAUAAGCGUUCACGUCCCAGCCCCUGUCAGAUUCUGGUGAAUCUGCGAAUUCUGCCGUAUAUCUC [A3G G19U G33C U72C], the self-cleavage was 0.41.

UAGCAGGGGGCCACAGCAGAAGCGUUCACGUCUCAGCCCCUGUCAGAUCCUGGUGAGUCUGCGAAUUCUGCUGUAUAUCUC [A3G G33U U49C A57G]: the self-cleavage was determined as 0.09.
